Data as given in the RNAGym collection of RNA variant scans (doi:10.7554/elife.90254).
Read counts are not given, so values of variants with three or more changes are uncertain.

B1: OR4K15 (parent)
chain: GUUAACGGUCAUAGGCCAUGGAAACUAGGAGCACCAUUUCGCUGCCAGUGAAGAAAUGAACAAAGAAAAUCUGGGCCAGGCAGGCAUCAAAAGAAAUAGUCUUGCGCUCAACCAGAAAGUCUGUAAUCAUUUUAAGGGUA

Variants of: B1
Assay: self-cleavage, relative activity (ratio to wild type); higher = more cleavage; in vitro, sequencing; the parent is a self-cleaving ribozyme

| Variant | self-cleavage |
| --- | --- |
| GAUAACGGUCAUAGGCCAUGGAAACUAGGAGCACCAUUUCGCUGCCAGUGAAGAAAUGAACAAAGAAAAUCUGGCCCAGGCAGGCAUCAAAAGAACUAGUCCUGCGCCCAACCAGAAAGUCAGUAAUCAUCUUAAGGGUA [U2A G75C A96C U102C U108C U122A U131C] | 0 |
| GCUGACGGUCAUAGGCCAUGGAAACUAGGGGCACCAUUUCGCUGCCAGUGAAGAAAUGAACAAAGAAAAUCUGGGCCAGGCAGGCAUCAAAAGAAAUAGUCUUGCGCUCAACCAGAAAGUCUGUAAUCAUUUUAAGGGUA [U2C A4G A30G] | 0.91 |
| GAUAACGGUUAUAGGCCAUGGAAACUAGGAGCACUAUUUCGCUGCCAGUGGAGAAAUGAACAAAGAAAAUCUGGGCCAGGCAGGCAUCAAAAGAAAUAGUCUUGCGCUCAACCAGAAAGUCUGUAAUCAUUUUAAGGAUA [U2A C10U C35U A51G G138A] | 0.5 |
| GAUAACGGUCAUAGGCCAUGGAAACUAGGAGCACCAUUUCGCUGCCAGUGAAGAAAUGAACAAAGAAAAUCUGGGCCAGGCAGGCAUCAAAAGAAAUAGUCUUGCGCCCAACCAGAAGGUCUGUAAUCAUUUUAAGGGUA [U2A U108C A118G] | 0.04 |
| GAUAACGGUCAAAGGCCAUGGAAACUAGGAGCACCAUUUCGCUGCCAGAGAAGAAAUGAACAAAGAAAAUCUGGGCCAGGCAGGCAUCAAAAGAAAUAGUCUCGCGCUCAACCAGAAAGUCUGUAAUCAUUUUAAGGGUA [U2A U12A U49A U103C] | 0.95 |
| GAAAACGGUCAUAGGCCAUGGAAACUAGGAGCACCAUUUCGCUGCCAGUGAAGAAAUGAACAAAGAAAAUCUGGGCCAGGCAGGCAUCAGAAGAAAUAGUCUUGCGCUCAACCAGAAAGUCUGUAAUCAUUUUAAGGGUA [U2A U3A A90G] | 0.84 |
| GCUAGCGGUCAUAGGCCAUGGAAACUAGGAGCGCCAUUUCGCUGCCAGUGAGGAAAUGAACAAAGAAAAUCUGGGCCAGGCAGGCAUCAAGAGAAAUAGUCUUGCGCUCAACCAGAAAGUCUGUAAUCAUUUUAAGGGUA [U2C A5G A33G A52G A91G] | 1.07 |
| GAUAACGGUCAUAGGCCAUGGAAACUAGGAGCACCAUUUCUCUGCCAGUGAAGAAAUGAACAAAGAAAAUCUGGGCCAGGCAGGCAUCAAAAGAAAUAGUCUUGCGCUCAACCAGAAGGUCUGUAAUCAUUUUAAGGGUA [U2A G41U A118G] | 0.63 |
| GAUAACGGUCAUAGGCCAUGGAAACUAGGAGCACCAUUUCGCUGCCAGUGAAGAAAUGAACAAAGAAAAUCUGGGCCAGGCAGGCAUCAAAAGACAUAGUCUUGCGCUCAACCAGAAAGACUGUAAUCAUUUUAAGGGUA [U2A A95C U120A] | 1.75 |
| GAUAACGGUCAUAGGCCAUGGAAACUAGGAGCACCAUUCCGCUGCCAGUGAAGGAAUGAACAAAGAAGAACUGGGCCAGGCGGGCAUCAAAAGGAAUAGUCUUGCGCUCAACCAGAAAGUCUGUAAUCAUUUUAAGGGUA [U2A U39C A54G A68G U70A A82G A94G] | 0.11 |
| GAUAACGGUCAAAGGCCAUGGAAACUAGGAGCACCAUUUCGCUGCCAGUGAAGAAAUGAACAAAGAAAAUCUGGGCCAGGCAGGCAUCAAAAGAAAUAGUCUUGCGCUCAACCAGAAAGUCUGUAAUCAUUUUAAGGUUA [U2A U12A G138U] | 1.25 |
| GAUAACGGUCAUAGGCCAUGGAAACUAGGAGCAUCAUUUCGCUGCCAGUGAAGAAAUGAACAAAGAAAAUCCGGGCCAGGCAGGCAUCAAAAGAAAUAGUCUUGCGCUCAACCAGAAAGUCUGUAAUCAUUUUAAGGGUA [U2A C34U U72C] | 0.79 |
| GAUAACGGCCAUAGGCCACGGAAACUAGGAGCACCAUUUCGCUGCCAGUGAGGAAAUGAACAAAGAAAAUCUGGGCCAGGCAGGCAUCAAAAGAAAUAGUCUUGCGCUCAACCAGAAAGUCUGUAAUCAUUUUAAGGGUA [U2A U9C U19C A52G] | 1.25 |
| GCUGACGGUCAUAGGCCAUGGAAACUAGGAGCACCACUUCGCUGCCAGUGAAGAAAUGAACAAAGAAAAUCUGGGCCAGGCAGGCAUCAAAAGAGAUAGUCUUGCGCUCAACCAGAAAGUCCGUAAUCAUUUUAAGGGUA [U2C A4G U37C A95G U122C] | 1.32 |
| GAUAACGGUCAUAGGCCAUGGAAACUAGGAGCACCAUUUCGCAGCCAGUGAAGAAAUGAACAAAGAAAAUCUGGGCCAGGCAGGCAUCAAAAGAAAUAGUCUUGCGCUCAACCAGAAAGUCUGUAAUCAUCUUAAGGGUA [U2A U43A U131C] | 1.13 |
| GCUGACGGUCAUAGGCCAUGGAAACUAGGAGCACCAUUUCGCUGCCAGUGAAGAAAUGAACAAAGAAAAUCCGGGCCAGGCAGGCAUCAAAAGAAAUAGUCUUGCGCUCAACCAGAAAGUCUGUAAUCAUUUUAAGGGUA [U2C A4G U72C] | 0.32 |
| GACAACGGUCAUAGGCCAUGGAAACUAGGAGCACCAUUUCGCUGCCAGUGAAGGAAUGAACAAAGAAAAUCUGGGCCAGGCAGGCAUCAAAAGAAAUAGUCUUGCGCUCAACCAGAAAGUCUGUAAUCAUUUUAAGGGUA [U2A U3C A54G] | 0.34 |
| GAUAACGGCCAUAGGCCAUGGAAACUAGGAGCACCAUUUCGCUGCCAGUGAAGAAAUGAACAAAGAAAAUCUGGGCCAGGCAGGCAUCGAAAGAAAUAGUCUUGCGCUCAACCAGAAAGUCUGUAAUCAUUUUAAGGGUA [U2A U9C A89G] | 1.6 |
| GAUAACGGUCAUAGGCCAUGGAAACUAGGAGCACCAUCUCGCUGCCAGUGAAGAAAUGAACAAAGAAAAUCUGGGCCAGGCAGGUAUCAAAAGAAAUAGUCUUGCGCUCAGCCAGAAAGUCUGUAAUCAUUUUAAGGGUA [U2A U38C C85U A111G] | 0.23 |
| GAUAACGGUCAUAGGCCAUGGAAACUAGGAGCACCAUUUUGCUGCCAGUGAAGAGAUGAACAAAGAAAAUCUGGGCCAGGCAGGCAUCAAAAGUAAUAGUCUUGCGCUCAACCAGAAAGUCUGUAAUCAUUUUAAGGGUA [U2A C40U A55G A94U] | 1.45 |
| GAUAACGGUCAUAGGCCAUGGAAACUAGGAGUACCAUUUCGCUGCCAGUGAAGAAAUGAACAAGGAAAAUCUGGGCCAGGCAGGCAUCAAAAGAAAUAGUCUUGCGCUCAACCAGAAAGCCUGUACUCAUUUUAAGGGUA [U2A C32U A64G U120C A126C] | 0.65 |

| Variant | self-cleavage |
| --- | --- |
| GCUGACGGUCAUAGGCCAUGGAAACUAGGAGCACCAUUUCGCUGCCAGUGAAGAAAUGAACAAAGAAAAUCUGGGCCAGGCAGGCAUCAAAAGAAAUAGUCUUGCGCUCAACCAGAAAGUCUGCAAUCAUUUUAAGGGUA [U2C A4G U124C] | 0.31 |
| GAUAACGGUCAUAGGCCAUGGAAACUAGGAGCACCAUUUCGCUGCCAGUGAAGAAAUGAACAAAGAAAAUCUGGGCCAGGCAGGCAUCAAAAGAAACAGUCUUGCGUCCAACCAGAAAGUCUGUAAUCAUUUUAAGGGUA [U2A U97C C107U U108C] | 0.04 |
| GAUAACGGUCAUAGGCCAUGGAAACUAGGAGCACCACUUCGCUGCCAGUGAAGAAAUGAACAAAGAAAAUCUGGGCCAGGCAGGCAUCAAAAGAAAUAGUCUUGCGCUCAACCAGAAGGUCUGUAAUCAUUUUAAGGGUA [U2A U37C A118G] | 0.47 |
| GAUAACGGUCAUAGGCCAUGGAAACUAGGAGCACCAUCUCACUGCCAGUGAAGAAAUGAACAAAGAAAAUCUGGGCCAGGCGGGCAUCAAAAGAAAUAGUCUUGCGCUCAACCAGAAAGUCUGUGAGCAUUUUAAGGGUA [U2A U38C G41A A82G A125G U127G] | 0.07 |
| GAUAACGGCCAUAGGCCAUGGAAACUAGGAGCACCAUUUCUCUGCCAGUGAAGAAAUGAACAAAGAAAAUCUGGGCCAGGCAGGCAUCAAAAGAAGUAGUCUUGCGCUCAACCAGAAAGCCUGUAAUCAUUUUAAGGGUA [U2A U9C G41U A96G U120C] | 0.23 |
| GCUAGCGGUCAUAGGCCAUGGAAACUAGGAGCACCAUUUCGCUGCCAGUGAAGAAAUGGACAAAGGAAAUCUGGGCCAGGCAGGCAUCAAAAGAAAUAGUCUUGCGCUCAACCAGAAAGCCUGUAAUCAUUUUAAGGGUA [U2C A5G A59G A66G U120C] | 1.38 |
| GAUAACGGUCAUAGGCCAAGGAAACUAGGAGCACCAUUUCGCUGCCAGUGAAGAAAUGAACAGAGAAAAUCUGGGCCAGGCAGGCAUCAAAAGAAAUAGUCUUGCGCUCAACCAGAAAGUCUGUAAUCAUUUUAAGGGUA [U2A U19A A63G] | 2.1 |
| GAUAACGGUCAUAGGCCAUGGAAACUAGGAGCACCAUUUCGCUGCCAGUAAAGAAAUGAGCAAAGAAAAUCAGGGCCAGGCAGGCAUCAAAAGAAAUAGUCUUGCGCUCAACCGGAAAGUCUGUAAUCAUUUUAAGGGUA [U2A G50A A60G U72A A114G] | 0.06 |
| GAUAACGGUCAUAGGCCAUGGAAACUAGGAGCACCAUUUCGCUGCCAGUGAAGAAAUGAACAAAGAAAAUCUGGGCCAGGCAGGCAUCAAAAGAAAUAGUCUUGCGCUCAACCAGGAAGUCUGUAAUCACUUUAAGGGUA [U2A A116G U130C] | 0.39 |
| GAUAACGGUCAUAGGCCAUGGAAACUAGGAGCACCAUUCCGCCGCCAGUGAAGAAAUGAACAAAGAAAAUCUGGGCCAGGCAGGCAUCAAAAGAAAUAGUCUUGCGCUCAACCUGAAAGUCUGUAAUCAUUUUAAGGGUA [U2A U39C U43C A114U] | 0.05 |
| GAUAACGGUCAUAGGCCAUGGAAACUAGGAGCACCAUUUCGCUGCCAGUGAAGAAAUGAACAAAGAAAAUCUGGGCCAGGCAGGCAUCAAAAGAAAUAGUCUUGCGCUCAACCAGAAAGUCAGUAAUCGUUUUAAGGGUA [U2A U122A A129G] | 0.42 |
| GCUACCGGUCAUAGGCCAUGGAAACUAGGAGCACCAUUUCGCUGCCAGUGAAGAAAUGAACGAAGAAAAUCCGGGCCAGGCAGGCAUCAAAAGAAAUAGUCUUGCGCUCAACCAGAAAGUCUGUAAUCAUUUUAAGGGUA [U2C A5C A62G U72C] | 0.18 |
| GAUAACGGACAUAGGCCAUGGAAACUAGGAGCACCAUUUAGCUGCCGGUGGUGAAAUGAACAAAGAAAAUCUGGGCCAGGCAGGCAUCAAAAGAAAUAGUCUUGCGCUCAACCAGAAAGUCUGUAAUCAUUUUAAGGGUA [U2A U9A C40A A47G A51G A52U] | 1.12 |
| GAUAACGGUCAUAGGCCACGGAAACUAGGAGCACCAUUUCGCUGCCGGUGAAGAAGUGAACAAAGAAAAUCUGGGCCAGGCAGGCAUCAAAAGAAAUAGUCUUGCGCUCAACCAGAAAGUCUGUAAUCAUUUUAAGGGUA [U2A U19C A47G A56G] | 0.94 |
| GAUAACGGUCAUAGGCCAAGGGAACUAGGAGCGCCAUUUCGCUGCCAAUGAAGAAAUGAACAAAGAAAAUCUGGGCCAGGCAGGCAUCAAAAGAAAUAGUCUUGCGCUCAACCAGAAAGUCUGUAAUCAUUUUAAGGGUA [U2A U19A A22G A33G G48A] | 0.96 |
| GAUAACGGUCAUAGGCCAUGGAAACUAGGAGCACCAUUUCGCUGCCAGUGAAGAAAUGAACAAAGAAAAUCUGGGCCAGGCAGGCAUCAAAAGAAGUAGUCCUGCGCUCAACCAGAAAGUCUGUAAUCAUUUUAAGGGUA [U2A A96G U102C] | 1.51 |
| GACAACGGUCAUAGGCCAUUGAAACUAGGAGCACCAUUUCGCUGCCAGUGAAUGAAUGAACAAAGGAAAUCUGGGCCAGGCAGGUAUCAGAAGAAAUAGUCUUGCGCUCAACCAGAGAGUCUGUAAUCAUUUUAAGGGUA [U2A U3C G20U G53U A54G A66G C85U A90G A117G] | 0.07 |
| GAUAACGGUCAUAGGCCAUGGAAACUAGGAGCACCAUUCCGCUGCCAGUGAAGAAAUGAACAAAGAAAAUCUGGGCCGGGCAGGCGUCAAAAGAAAUAGUCUUGCGCUCAACCAGAAAGUCUGUAAUCAUUUUAAUGGUA [U2A U39C A78G A86G G136U] | 0.45 |
| GCUGGCGGUCAUAGGCCAUGGAAAUUAGAAGCACCAUUUCGCUGCCAGUGAAGAAAUGAACAAAGAAAACCUGGGCCAGGCAGGCAUCAAAAGAAAUAGUCUUGCGCUCAACCAGAAAGACUGUAAUCAUUUUAUGGGUA [U2C A4G A5G C25U G29A U70C U120A A135U] | 0.63 |
| GAUAACGGUCAUAGGCCAUGGAAACUAGGAGCACCAUUUCGCUGCCAGUGAAGAAAUGAACAAAGAAAAUCUGGGCCAGGCAGGCAUCAAAAGAAAUAGCCUUGCGCUCAACCAGAAAGUCUGUAAUCAUUCUAAGGGUA [U2A U100C U132C] | 1.16 |
